Results reported in publication PMC12435841.
Changes are numbered by the printed parent chain. In names and notes the source's numbering stands. Results are given in words; binding and its absence hold for the method and conditions named. Binding seen in cells or lysates may run through a third protein. Some results given as binding are weak or reduced against the parent protein; the word gives no strength. Tags and fused reporters may be left off the sequences shown.

T1: PLRG1, HA-tagged (human) (UniProt O43660)
T1 sequence: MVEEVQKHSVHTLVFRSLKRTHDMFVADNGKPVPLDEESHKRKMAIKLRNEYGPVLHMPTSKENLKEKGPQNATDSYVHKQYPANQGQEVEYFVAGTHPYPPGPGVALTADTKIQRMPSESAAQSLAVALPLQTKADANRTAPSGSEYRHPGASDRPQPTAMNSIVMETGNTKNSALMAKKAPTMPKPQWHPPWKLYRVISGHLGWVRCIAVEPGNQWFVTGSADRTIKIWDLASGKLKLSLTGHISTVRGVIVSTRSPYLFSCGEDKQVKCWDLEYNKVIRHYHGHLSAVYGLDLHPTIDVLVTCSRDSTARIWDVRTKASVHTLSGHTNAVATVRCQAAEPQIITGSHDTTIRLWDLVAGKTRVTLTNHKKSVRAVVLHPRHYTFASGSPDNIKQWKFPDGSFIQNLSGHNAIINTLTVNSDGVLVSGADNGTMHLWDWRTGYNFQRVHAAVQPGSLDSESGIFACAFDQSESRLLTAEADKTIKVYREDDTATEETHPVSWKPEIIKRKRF

T2: PPIL1, HA-tagged (human) (UniProt Q9Y3C6)
T2 sequence: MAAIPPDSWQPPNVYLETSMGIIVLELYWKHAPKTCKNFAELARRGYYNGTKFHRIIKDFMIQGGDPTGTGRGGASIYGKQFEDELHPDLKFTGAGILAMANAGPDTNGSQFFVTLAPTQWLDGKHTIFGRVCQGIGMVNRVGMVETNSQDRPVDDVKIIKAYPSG

B1: SNW domain-containing protein 1 (SNW1), wild type, FLAG-tagged (protein, UniProt Q13573 1-536)
chain: MALTSFLPAPTQLSQDQLEAEEKARSQRSRQTSLVSSRREPPPYGYRKGWIPRLLEDFGDGGAFPEIHVAQYPLDMGRKKKMSNALAIQVDSEGKIKYDAIARQGQSKDKVIYSKYTDLVPKEVMNADDPDLQRPDEEAIKEITEKTRVALEKSVSQKVAAAMPVRAADKLAPAQYIRYTPSQQGVAFNSGAKQRVIRMVEMQKDPMEPPRFKINKKIPRGPPSPPAPVMHSPSRKMTVKEQQEWKIPPCISNWKNAKGYTIPLDKRLAADGRGLQTVHINENFAKLAEALYIADRKAREAVEMRAQVERKMAQKEKEKHEEKLREMAQKARERRAGIKTHVEKEDGEARERDEIRHDRRKERQHDRNLSRAAPDKRSKLQRNENRDISEVIALGVPNPRTSNEVQYDQRLFNQSKGMDSGFAGGEDEIYNVYDQAWRGGKDMAQSIYRPSKNLDKDMYGDDLEARIKTNRFVPDKEFSGSDRRQRGREGPVQFEEDPFGLDKFLEEAKQHGGSKRPSDSSRPKEHEHEGKKRRKE
B2: SNW1 M230_H231delinsRY, FLAG-tagged (protein, UniProt Q13573 1-536)
chain: B1 chain with M230R, H231Y
B3: SNW1 G61_G62del, FLAG-tagged (protein, UniProt Q13573 1-536)
chain: MALTSFLPAPTQLSQDQLEAEEKARSQRSRQTSLVSSRREPPPYGYRKGWIPRLLEDFGDAFPEIHVAQYPLDMGRKKKMSNALAIQVDSEGKIKYDAIARQGQSKDKVIYSKYTDLVPKEVMNADDPDLQRPDEEAIKEITEKTRVALEKSVSQKVAAAMPVRAADKLAPAQYIRYTPSQQGVAFNSGAKQRVIRMVEMQKDPMEPPRFKINKKIPRGPPSPPAPVMHSPSRKMTVKEQQEWKIPPCISNWKNAKGYTIPLDKRLAADGRGLQTVHINENFAKLAEALYIADRKAREAVEMRAQVERKMAQKEKEKHEEKLREMAQKARERRAGIKTHVEKEDGEARERDEIRHDRRKERQHDRNLSRAAPDKRSKLQRNENRDISEVIALGVPNPRTSNEVQYDQRLFNQSKGMDSGFAGGEDEIYNVYDQAWRGGKDMAQSIYRPSKNLDKDMYGDDLEARIKTNRFVPDKEFSGSDRRQRGREGPVQFEEDPFGLDKFLEEAKQHGGSKRPSDSSRPKEHEHEGKKRRKE
B4: SNW1 A63P, FLAG-tagged (protein, UniProt Q13573 1-536)
chain: B1 chain with A63P
B5: SNW1 D57_K110del (deletion of exon 3), FLAG-tagged (protein, UniProt Q13573)
chain: MALTSFLPAPTQLSQDQLEAEEKARSQRSRQTSLVSSRREPPPYGYRKGWIPRLLEVIYSKYTDLVPKEVMNADDPDLQRPDEEAIKEITEKTRVALEKSVSQKVAAAMPVRAADKLAPAQYIRYTPSQQGVAFNSGAKQRVIRMVEMQKDPMEPPRFKINKKIPRGPPSPPAPVMHSPSRKMTVKEQQEWKIPPCISNWKNAKGYTIPLDKRLAADGRGLQTVHINENFAKLAEALYIADRKAREAVEMRAQVERKMAQKEKEKHEEKLREMAQKARERRAGIKTHVEKEDGEARERDEIRHDRRKERQHDRNLSRAAPDKRSKLQRNENRDISEVIALGVPNPRTSNEVQYDQRLFNQSKGMDSGFAGGEDEIYNVYDQAWRGGKDMAQSIYRPSKNLDKDMYGDDLEARIKTNRFVPDKEFSGSDRRQRGREGPVQFEEDPFGLDKFLEEAKQHGGSKRPSDSSRPKEHEHEGKKRRKE

Columns and labels:
[1] = molecular target: T1, PLRG1, HA-tagged (human); experiment: co-IP; HEK293T cells transfected with plasmids encoding SNW1-FLAG (WT or variant) and the HA-tagged partner; cell lysates subjected to anti-FLAG and anti-HA IP, analysed by Western blotting
[2] = molecular target: T2, PPIL1, HA-tagged (human); experiment: as above

Row | Binder | binding [1] | binding [2]
1 | B1 | binds | binds
2 | B2 | binds | 
3 | B3 |  | no binding
4 | B4 |  | no binding
5 | B5 |  | no binding
